Values belong to the binder of their own block, whether it stands above or below them.
Legend:
mCD26-Fc = molecular target: T1, mCD26-Fc (mouse, UniProt P28843 29-760, limits assumed); experiment: SPR, Fc-tagged CD26 captured on protein A
T1 construct: Off-target in SPR; construct not described further; also called mCD26-Fc-His; not shown: Fc
Procedure: (§1) Recombinant protein A was immobilized on a High Capacity Amine sensor chip (Bruker) after NHS/EDC activation resulting in approx. 2000 RU with a Sierra SPR-32 system (Bruker). The chip was equilibrated with SPR running buffer (PBS 0.05%, Tween pH 7.3). Injection of ethanolamine after ligand immobilization was used to block unreacted NHS groups. The Fc-tagged FAP and CD26 target molecules were injected with 60 nM followed by the injection of FAP binding proteins. Upon binding, target analyte was accumulated on the surface increasing the refractive index. This change in the refractive index was measured in real time and plotted as response or resonance units versus time. The FAP binding proteins were applied to the chip in serial dilutions with a flow rate of 30 μl/min. The association was performed for 120 seconds and the dissociation for 180 seconds. After each run, the chip surface was regenerated with 30 μl regeneration buffer (10 mM glycine pH 2.0) and equilibrated with running buffer. Binding studies were carried out by the use of the Sierra SPR-32 system (Bruker); data evaluation was operated via the Sierra Analyser software, provided by the manufacturer, by the use of the Langmuir 1:1 model (RI=0). Evaluated dissociation constants (KD) were standardized against the immobilized protein and indicated.

hCD26-Fc = molecular target: T2, hCD26-Fc (human, UniProt P27487 29-766, limits assumed); experiment: SPR, Fc-tagged CD26 captured on protein A
hCD26-Fc, sequence (P27487 29-766 limits assumed): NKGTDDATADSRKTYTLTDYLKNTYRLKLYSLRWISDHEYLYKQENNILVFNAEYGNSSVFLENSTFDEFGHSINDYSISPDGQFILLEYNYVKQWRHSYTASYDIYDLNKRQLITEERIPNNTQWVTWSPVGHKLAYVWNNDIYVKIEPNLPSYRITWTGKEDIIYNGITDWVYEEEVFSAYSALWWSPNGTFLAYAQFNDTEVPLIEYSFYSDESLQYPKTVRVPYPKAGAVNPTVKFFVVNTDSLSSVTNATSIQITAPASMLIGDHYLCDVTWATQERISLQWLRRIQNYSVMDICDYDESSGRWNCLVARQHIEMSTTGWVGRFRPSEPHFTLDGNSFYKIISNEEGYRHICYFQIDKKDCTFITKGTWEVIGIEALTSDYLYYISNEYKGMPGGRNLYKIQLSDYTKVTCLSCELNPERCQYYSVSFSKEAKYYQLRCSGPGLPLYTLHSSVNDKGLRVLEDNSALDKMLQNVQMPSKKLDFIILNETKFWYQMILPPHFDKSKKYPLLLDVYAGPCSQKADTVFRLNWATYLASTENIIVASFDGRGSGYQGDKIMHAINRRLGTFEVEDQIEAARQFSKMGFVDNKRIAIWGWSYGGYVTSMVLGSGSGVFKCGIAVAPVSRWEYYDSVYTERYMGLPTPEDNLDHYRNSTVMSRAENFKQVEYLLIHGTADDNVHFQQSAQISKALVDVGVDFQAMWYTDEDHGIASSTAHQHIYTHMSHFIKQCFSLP
T2 construct: Off-target in SPR; the in-house construct is not described further; also called hCD26-Fc-His; not shown: Fc
Procedure: as §1

hFAP-Fc [1] = molecular target: T3, hFAP-Fc (human, UniProt Q12884 26-760); experiment: SPR (Sierra SPR-32), hFAP-Fc captured on protein A, 1:1 Langmuir
T3 construct: extracellular domain; Made in house in Expi293-F cells; also called hFAP-Fc-His; human FAP; not shown: IgG1-Fc
T3 sequence (looked up): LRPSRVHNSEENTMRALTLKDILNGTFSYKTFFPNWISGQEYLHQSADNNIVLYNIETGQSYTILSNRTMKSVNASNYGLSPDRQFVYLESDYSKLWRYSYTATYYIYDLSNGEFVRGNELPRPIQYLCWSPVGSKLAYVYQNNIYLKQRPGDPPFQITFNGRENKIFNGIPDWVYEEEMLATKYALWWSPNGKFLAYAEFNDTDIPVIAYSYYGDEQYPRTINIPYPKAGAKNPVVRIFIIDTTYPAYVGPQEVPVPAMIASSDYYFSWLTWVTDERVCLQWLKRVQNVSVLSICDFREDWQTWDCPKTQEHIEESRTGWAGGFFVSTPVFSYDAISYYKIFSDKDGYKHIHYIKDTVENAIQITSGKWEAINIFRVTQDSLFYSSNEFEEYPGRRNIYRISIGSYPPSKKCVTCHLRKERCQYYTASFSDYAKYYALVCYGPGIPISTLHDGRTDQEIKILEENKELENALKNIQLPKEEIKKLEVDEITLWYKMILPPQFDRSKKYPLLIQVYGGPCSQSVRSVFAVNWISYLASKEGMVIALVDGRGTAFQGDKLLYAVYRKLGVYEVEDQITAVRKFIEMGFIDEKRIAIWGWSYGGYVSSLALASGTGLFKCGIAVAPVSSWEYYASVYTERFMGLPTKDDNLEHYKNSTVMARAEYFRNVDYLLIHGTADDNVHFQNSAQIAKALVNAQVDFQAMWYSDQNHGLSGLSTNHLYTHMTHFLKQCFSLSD
Procedure: as §1

[2] = molecular target: T4, hCD26 expressed on HEK293-hCD26 cells (human, UniProt P27487 1-766); experiment: flow cytometry on HEK293-hCD26 cells
T4 construct: whole, on cells
Procedure: (§2) Flow cytometry was used to analyze the interaction of FAP binding proteins with cell surface-exposed hFAP and mFAP. FAP overexpressing human embryonic kidney cell line HEK293, CD26-overexpressing HEK293-cells, native FAP expressing cell line Wi38 and empty vector control HEK293-pEntry cells were used. The anti-hFAP antibody (R&D Systems, MAB3715-100) with a concentration of 1 μg/ml in combination with anti-mouse-IgG-Alexa488 (Invitrogen, A10680) with a 1:1000 dilution was used as positive control for hFAP-expressing cells. Anti-mFAP antibody (R&D Systems, MAB9727) with a concentration of 1 μg/ml in combination with anti-rat-IgG-Alexa488 (Invitrogen, A11006) with a dilution of 1:1000 was used as positive control for mFAP-expressing cells.
(§3) Cells were trypsinized and resupended in medium containing FCS, washed and stained in pre-cooled FACS blocking buffer (3% FCS/PBS). A suspension with a cell concentration of 1×10⁶ cells/ml was prepared for cell staining and filled with 100 μl/well into a 96 well plate (Greiner) in triplicate for each cell line.
(§4) Affilin® proteins were tested with a concentration of 1 μM, 100 nM, 10 nM, or 1 nM on FAP expressing cells HEK293-hFAP, HEK293-mFAP and Wi38-cells. To exclude an unspecific binding, Affilin® proteins were also incubated on CD26 expressing cells HEK293-hCD26 and HEK293-mCD26 and control cells HEK293-pEntry with the same concentrations. […] Supernatants were removed after 45 min, cells were washed in blocking buffer and 100 μl/well rabbit anti-StrepTag antibody (GenScript; A00626), 1:300 diluted in FACS blocking buffer were added. After removal of the primary antibody, goat anti-rabbit-IgG-Alexa Fluor 488 antibody (Invitrogen; A11008) was applied in a 1:1000 dilution. Flow cytometry measurement was conducted on the Guava easyCyte 5HT device from Merck-Millipore at excitation wavelength 488 nm and emission wavelength 525/30 nm.

[3] = molecular target: T5, mCD26 expressed on HEK293-mCD26 cells (mouse, UniProt P28843 1-760); experiment: flow cytometry on HEK293-mCD26 cells
T5 construct: whole, on cells
Procedure: as §2, §3, §4

hFAP-Fc [4] = molecular target: T3, hFAP-Fc; experiment: ELISA on coated hFAP-Fc; Affilin in human serum, 0 h
Procedure: (§5) High binding plates (Greiner, 781061) were immobilized with 2.5 μg/ml hFAP-Fc over night at 4° C. Dilution series of 3 µM to 0.07 PM of Affilin® proteins were incubated in 100% human serum or 100% mouse serum for 24 h at 37° C.
(§6) ELISA-plates were washed three times with PBST (PBS+ 0.1% Tween) and blocked with 3% BSA/0.5% Tween/PBS 1 h at rt. After preincubation for 0 h or 24 h in the presence of serum the dilution series were incubated on ELISA-plates for 30 min at room temperature (rt). Wells were washed with PBST and incubated with biotinylated anti-ubiquitin-antibody (1:300) for 30 min at rt. The binding was visualized with Streptavidin-HRP (1:5.000). […] ELISA analysis confirmed the high stability of FAP binding proteins in serum.

hFAP-Fc [5] = molecular target: T3, hFAP-Fc; experiment: ELISA on coated hFAP-Fc; Affilin in mouse serum, 0 h
Procedure: as §5, §6

hFAP-Fc [6] = molecular target: T3, hFAP-Fc; experiment: ELISA on coated hFAP-Fc; Affilin in mouse serum, 24 h at 37° C.
Procedure: as §5, §6

hFAP-Fc [7] = molecular target: T3, hFAP-Fc; experiment: ELISA on coated hFAP-Fc; Affilin in human serum, 24 h at 37° C.
Procedure: as §5, §6

mCD26-Fc, sequence (P28843 29-760 limits assumed): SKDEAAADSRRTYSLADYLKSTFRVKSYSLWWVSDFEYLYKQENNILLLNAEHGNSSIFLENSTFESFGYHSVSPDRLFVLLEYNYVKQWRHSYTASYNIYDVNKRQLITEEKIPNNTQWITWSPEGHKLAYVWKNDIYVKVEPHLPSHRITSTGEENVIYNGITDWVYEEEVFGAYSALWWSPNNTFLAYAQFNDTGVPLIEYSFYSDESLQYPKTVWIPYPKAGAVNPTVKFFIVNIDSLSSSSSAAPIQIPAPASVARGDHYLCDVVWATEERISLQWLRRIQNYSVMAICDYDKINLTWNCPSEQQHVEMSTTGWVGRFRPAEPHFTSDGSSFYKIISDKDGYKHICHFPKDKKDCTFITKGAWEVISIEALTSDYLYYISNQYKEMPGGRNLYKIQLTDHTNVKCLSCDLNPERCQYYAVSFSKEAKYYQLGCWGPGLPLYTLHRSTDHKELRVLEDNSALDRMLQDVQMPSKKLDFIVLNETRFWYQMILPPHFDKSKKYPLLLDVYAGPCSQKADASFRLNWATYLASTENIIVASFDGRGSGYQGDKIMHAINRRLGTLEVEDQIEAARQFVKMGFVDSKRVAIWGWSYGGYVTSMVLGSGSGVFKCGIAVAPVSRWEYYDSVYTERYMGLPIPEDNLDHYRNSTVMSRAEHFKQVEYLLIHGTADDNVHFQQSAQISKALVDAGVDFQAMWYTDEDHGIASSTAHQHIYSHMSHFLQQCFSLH

B2: Affilin®-223054 (designed binder)
chain: MQIFVWTMWHKKITLEVEPSDTIENVKAKIQDKEGIPPDQQFLVWKGKQLEDGRTLSDYNISQWPNLWLGLKLRAA
notes: Ubiquitin mutein
binding result (mCD26-Fc): no binding | binding result (hCD26-Fc): no binding | binding result [2]: no binding (tested: 1 µM, 100 nM, 10 nM, or 1 nM) | binding result [3]: no binding (tested: 1 µM, 100 nM, 10 nM, or 1 nM) | Kd (hFAP-Fc [1]): 2 nM

B3: Affilin®-223019 (designed binder)
chain: MQIFVWTKTQKLITLEVEPSDTIENVKAKIQDKEGIPPDQQALFWKGKQLEDGRTLSDYNIWSWPNLWLELMLRAA
notes: Ubiquitin mutein
binding result (mCD26-Fc): no binding | binding result (hCD26-Fc): no binding | binding result [2]: no binding (tested: 1 µM, 100 nM, 10 nM, or 1 nM) | binding result [3]: no binding (tested: 1 µM, 100 nM, 10 nM, or 1 nM) | Kd (hFAP-Fc [1]): 2 nM

B5: Affilin®-217862 (designed binder)
chain: MQIFVWTKDYKGITLEVEPSDTIENVKAKIQDKEGIPPDQQTLTWKGKQLEDGRTLSDYNIMVWPNLWLRLRAA
notes: Ubiquitin mutein
binding result (mCD26-Fc): no binding | binding result (hCD26-Fc): no binding | binding result [2]: no binding (tested: 1 µM, 100 nM, 10 nM, or 1 nM) | binding result [3]: no binding (tested: 1 µM, 100 nM, 10 nM, or 1 nM) | Kd (hFAP-Fc [1]): 7 nM

B6: Affilin®-217993 (designed binder)
chain: MQIFVWTITGKTITLEVEPSDTIENVKAKIQDKEGIPPDQQRLIWAGKQLEDGRTLSDYNIRSWPNLHLVLRLRAAMQIFVHTATGKTITLEVEPSDTIENVKAKIQDKEGIPPDQQRLIWAGKQLEDGRTLSDYNIEDFPPLHLVLRLRAASAWSHPQFEK
notes: Ubiquitin mutein
binding result (mCD26-Fc): no binding | binding result (hCD26-Fc): no binding | binding result [2]: no binding (tested: 1 µM, 100 nM, 10 nM, or 1 nM) | binding result [3]: no binding (tested: 1 µM, 100 nM, 10 nM, or 1 nM) | Kd (hFAP-Fc [1]): 23 nM

B7: Affilin®-217966 (designed binder)
chain: MQIFVKTLTPEWHIIGKTITLEVEPSDTIENVKAKIQDKEGIPPDQQNLAWAGKQLEDGRTLSDYNINHGARLMLKLALRAA
notes: Ubiquitin mutein
binding result (mCD26-Fc): no binding | binding result (hCD26-Fc): no binding | binding result [2]: no binding (tested: 1 µM, 100 nM, 10 nM, or 1 nM) | binding result [3]: no binding (tested: 1 µM, 100 nM, 10 nM, or 1 nM) | Kd (hFAP-Fc [1]): 7.8 nM

B9: Affilin®-220134 (designed binder)
chain: MQIFVWTRRNKRITLEVEPSDTIENVKAKIQDKEGIPPDQQHLTWKGKQLEDGRTLSDYNISEWPNLFLRLNLRAA
notes: Ubiquitin mutein
Kd (hFAP-Fc [4]): 0.6 nM | binding result (mCD26-Fc): no binding | binding result (hCD26-Fc): no binding | binding result [2]: no binding (tested: 1 µM, 100 nM, 10 nM, or 1 nM) | Kd (hFAP-Fc [5]): 0.6 nM | Kd (hFAP-Fc [6]): 0.7 nM | binding result [3]: no binding (tested: 1 µM, 100 nM, 10 nM, or 1 nM) | Kd (hFAP-Fc [7]): 0.6 nM | Kd (hFAP-Fc [1]): 1.7 nM

The next lines start with results.

binding result (mCD26-Fc): no binding | binding result (hCD26-Fc): no binding | Kd (hFAP-Fc [1]): 43 nM
B1: Affilin®-217917 (designed binder)
chain: MQIFVWTVVQKPITLEVEPSDTIENVKAKIQDKEGIPPDQQKLHWRGKQLEDGRTLSDYNIPFFPHLILMLQLRAA
notes: Ubiquitin mutein

Kd (hFAP-Fc [4]): 0.3 nM | binding result (mCD26-Fc): no binding | binding result (hCD26-Fc): no binding | Kd (hFAP-Fc [5]): 0.4 nM | Kd (hFAP-Fc [6]): 0.5 nM | Kd (hFAP-Fc [7]): 0.4 nM | Kd (hFAP-Fc [1]): 6 nM
B4: Affilin®-219750 (designed binder)
chain: MQIFVKTLTRDYHRFGKTITLEVEPSDTIENVKAKIQDKEGIPPDQQRLAWAGKQLEDGRTLSDYNIHDGHTLKLKLLLRAA
notes: Ubiquitin mutein
binding result [2]: no binding (tested: 1 µM, 100 nM, 10 nM, or 1 nM) | binding result [3]: no binding (tested: 1 µM, 100 nM, 10 nM, or 1 nM)

Kd (hFAP-Fc [4]): 0.5 nM | binding result (mCD26-Fc): no binding | binding result (hCD26-Fc): no binding | Kd (hFAP-Fc [5]): 1.5 nM | Kd (hFAP-Fc [6]): 1.9 nM | Kd (hFAP-Fc [7]): 0.4 nM | Kd (hFAP-Fc [1]): 3.3 nM
B8: Affilin®-220198 (designed binder)
chain: MQIFVKTLTEDWFVYGKTITLEVEPSDTIENVKAKIQDKEGIPPDQQRLAWAGKQLEDGRTLSDYNIQGGSMLMLKLHLRAA
notes: Ubiquitin mutein
binding result [2]: no binding (tested: 1 µM, 100 nM, 10 nM, or 1 nM) | binding result [3]: no binding (tested: 1 µM, 100 nM, 10 nM, or 1 nM)
